Data published in PubChem BioAssay (Tox21).
Values joined by “and” are separate entries in the source; they are usually repeats but may differ in a detail not shown here. Equal values may be shown once. The inconclusive results got no clear call from the source; some entries with a clear call stand among them for comparison. Potencies beside an inconclusive call are fits to weak or partial responses and may not hold up. Some structures have more than one record in an assay (separate samples or runs), and their calls can disagree. Active and inactive are the calls of the source. The call rests on the fitted dose curve; in most records, active means well fitted cell-killing curve with a large enough effect in the repeat runs; inconclusive means weak or mixed curves, or effect the other way; inactive means flat fitted curve, though single readings scatter.

Legend:
[1] = cAMP Responsive Elements (CRE) small molecule antagonists, cell-based qHTS assay: qHTS cell viability counter screen (AID 2060913); further: nearly all actives have a fitted effect of over 40% in size
Outline: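 HEK293T CRE-bla, 2,000 cells/well, 18 h preincubation; cpd in DMSO + NKH477 0.25 uM final, 3 h 37 C/5% CO2; LiveBLAzer 2 h RT, then CellTiter-Glo 30 min RT, luminescence.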

[2] = cAMP Responsive Elements (CRE) small molecule agonists, cell-based qHTS assay: qHTS cell viability counter screen (AID 2060914); further: nearly all actives have a fitted effect of over 50% in size
Outline: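 Luminescence read-out (CellTiter-Glo, 30 min RT) of ATP-based viability in CRE-bla HEK 293T cells, run in the same wells as the β-lactamase reporter assay after 3 h compound treatment at 37 °C.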
On the % scale 0 is the no-effect control and ±100 the full control effect; potency means the concentration at half of the fitted maximal effect; tags describe the fitted curve by direction and shape.

SMILES | Potency [1] | Potency [2]
CCCCCCCCCC(CC)c1ccc(S(=O)(=O)O)cc1 (centres undefined) | inconclusive: 48.6 µM [cytotoxic, partial curve, poor fit] [middle of 4 runs] | inconclusive: 54.8 µM [cytotoxic, partial curve, poor fit] and inconclusive: 27.3 µM [cytotoxic, single point] and inconclusive: 30.6 µM [cytotoxic, full curve, poor fit]
CCN(CC)C(=S)[S-].CCN(CC)C(=S)[S-].[Zn+2] | active: 6.8 µM | active: 19.2 µM
ClC1=C(Cl)[C@]2(Cl)[C@@H]3[C@@H]4C[C@@H]([C@H]5O[C@@H]45)[C@@H]3[C@@]1(Cl)C2(Cl)Cl | active: 54.5 µM | active: 61.1 µM
CN(C)c1ccc(N=O)cc1 | inconclusive: 24.4 µM [rising, full curve, poor fit] | inactive
CC(C)(C)c1cc([N+](=O)[O-])cc([N+](=O)[O-])c1O | inconclusive: 12.2 µM [cytotoxic, full curve] | inconclusive: 30.5 µM [cytotoxic, partial curve, poor fit]
[Cl][Hg][c]1ccccc1 | active: 19.3 µM | active: 30.6 µM
CCCCCCCCCCCCCCCCCCn1cc[n+](C)c1 | active: 27.1 µM | active: 30.5 µM
C[CH2][Hg][S]c1ccccc1C(=O)O | inconclusive: 68.6 µM [cytotoxic, single point] and inconclusive: 29.8 µM [cytotoxic] | inconclusive: 77 µM [cytotoxic, single point] and inconclusive: 37.6 µM [cytotoxic, single point]
CN(C)S(=O)(=O)N(SC(F)(Cl)Cl)c1ccccc1 | inconclusive: 68.6 µM [cytotoxic, partial curve, poor fit] | inconclusive: 48.6 µM [cytotoxic, partial curve, poor fit]
Oc1cc(Cl)ccc1Oc1ccc(Cl)cc1Cl | active: 44.3 µM and inconclusive: 29.8 µM [cytotoxic] | active: 62.6 µM and inconclusive: 33.5 µM [cytotoxic, partial curve, poor fit]
O=C(Nc1ccccc1-c1ccc(Cl)cc1)c1cccnc1Cl | inconclusive: 27 µM [cytotoxic, single point] | inconclusive: 6.48 µM [cytotoxic, single point]
OC(c1ccc(Cl)cc1)(c1ccc(Cl)cc1)C(Cl)(Cl)Cl | inconclusive: 48.6 µM [cytotoxic, partial curve] | inconclusive: 54.5 µM [cytotoxic, single point]
CC1(C)C(/C=C(\Cl)C(F)(F)F)C1C(=O)OC(C#N)c1cccc(Oc2ccccc2)c1 (centres undefined) | inconclusive: 24.7 µM [cytotoxic, partial curve, poor fit] | inconclusive: 13.9 µM [cytotoxic, full curve, poor fit]
[F][Sn]([c]1ccccc1)([c]1ccccc1)[c]1ccccc1 | active: 5.45 µM | inconclusive: 7.7 µM [cytotoxic, full curve]
IC(I)=C(I)I | inconclusive: 61.1 µM [cytotoxic] | inconclusive: 61.1 µM [cytotoxic]
O=c1[nH]c2ccccc2n1C1CCN(CCCC(c2ccc(F)cc2)c2ccc(F)cc2)CC1 | inconclusive: 68.6 µM [cytotoxic, single point] | inconclusive: 68.6 µM [cytotoxic, single point]
COC(=O)N(OC)c1ccccc1COc1ccn(-c2ccc(Cl)cc2)n1 | inconclusive: 9.69 µM [cytotoxic, full curve] | active: 5.45 µM
C=C(C)C(=O)[O][Sn]([CH2]CCC)([CH2]CCC)[CH2]CCC | active: 7.7 µM | active: 4.86 µM
O=C(O)C(Cl)Br (centres undefined) | inactive | inconclusive: 19.5 µM [rising, partial curve, poor fit]
Clc1ccc(COC(Cn2ccnc2)c2ccc(Cl)cc2Cl)cc1 (centres undefined) | active: 50.8 µM and active: 45.1 µM and inconclusive: 21.1 µM [cytotoxic, partial curve, poor fit] | inconclusive: 21.1 µM [cytotoxic, partial curve, poor fit]
CCC(C)c1cc([N+](=O)[O-])cc([N+](=O)[O-])c1O (centres undefined) | inconclusive: 9.69 µM [cytotoxic, single point] | inconclusive: 0.243 µM [cytotoxic, single point]
CCOC(=O)c1cncn1C(C)c1ccccc1 (centres undefined) | inactive | inactive
CC1CCC(C(C)C)C(OC(=O)c2ccccc2N)C1 (centres undefined) | active: 47.9 µM | active: 53.7 µM
CCOP(=S)(OCC)Oc1nc(Cl)c(Cl)cc1Cl | inconclusive: 68.7 µM [cytotoxic, single point] | inconclusive: 68.6 µM [cytotoxic, single point]

SMILES | Potency [1] | Potency [2]
C=CC(=O)OCC(COC(=O)C=C)(COC(=O)C=C)COC(=O)C=C | inconclusive: 77 µM [cytotoxic, single point] | inconclusive: 77 µM [cytotoxic, single point]
CCCCCCCCCC(=O)O[C@H]1CC[C@H]2[C@@H]3CCC4=CC(=O)CC[C@@H]4[C@H]3CC[C@]12C | – | inconclusive: 0.422 µM [cytotoxic, single point]
C[C@@H]1CC[C@@]2(OC1)O[C@H]1[C@@H](O)[C@H]3[C@@H]4CC[C@H]5C[C@@H](O[C@@H]6O[C@H](CO)[C@H](O[C@@H]7O[C@H](CO)[C@@H](O)[C@H](O[C@@H]8OC[C@@H](O)[C@H](O)[C@H]8O)[C@H]7O[C@@H]7O[C@H](CO)[C@@H](O)[C@H](O[C@@H]8O[C@H](CO)[C@@H](O)[C@H](O)[C@H]8O)[C@H]7O)[C@H](O)[C@H]6O)[C@H](O)C[C@]5(C)[C@H]4CC[C@]3(C)[C@H]1[C@@H]2C | active: 32.5 µM | active: 29 µM
CCCCCCCCCCCCCCCC[n+]1ccccc1 | active: 56.2 µM [middle of 4 runs] | active: 47.9 µM [middle of 4 runs]
Oc1ccc(C2(c3ccc(O)cc3)c3ccccc3-c3ccccc32)cc1 | inconclusive: 54.5 µM [cytotoxic, partial curve, poor fit] | inconclusive: 77 µM [cytotoxic, single point]
CCOC(=O)C1(c2ccccc2)CCN(CCc2ccc(N)cc2)CC1 | – | inactive
CNC(=O)Oc1ccccc1C1OCCO1 | – | inconclusive: 2.72 µM [cytotoxic, single point]
Clc1ccc(C(c2ccc(Cl)cc2)C(Cl)(Cl)Cl)cc1 | inconclusive: 30.9 µM [cytotoxic, partial curve] | inconclusive: 61.1 µM [cytotoxic, single point]
N#Cc1sc2c(=O)c3ccccc3c(=O)c=2sc1C#N | active: 61.1 µM | active: 54.5 µM
C=CC(=O)OC(C)(C)C | – | inconclusive: 2.34 µM [cytotoxic, single point]
CC(CC(C#N)(c1ccccc1)c1ccccc1)N(C)C (centres undefined) | – | inactive
O=[N+]([O-])c1cc(C(F)(F)F)c(Cl)c([N+](=O)[O-])c1Nc1ncc(C(F)(F)F)cc1Cl | active: 30.6 µM | active: 77 µM
O=[N+]([O-])c1cc([As](=O)(O)O)ccc1O | – | inactive
NC(=O)C(Cl)Cl | – | inconclusive: 24.3 µM [cytotoxic, single point]
CCCCCCCCCCCCn1cc[n+](C)c1 | – | inconclusive: 77.7 µM [cytotoxic, single point]
Nc1ccc(Cl)cc1 | – | inconclusive: 78.3 µM [rising, single point]
Nc1n[nH]c(N)n1 | – | inconclusive: 55.5 µM [rising, partial curve, poor fit]
CCCN(CCC)C(=O)Cc1c(-c2ccc(Cl)cc2)nc2ccc(Cl)cn12 | – | inactive
CC1(C(=O)Nc2ccc(O)c(Cl)c2Cl)CCCCC1 | inconclusive: 68.6 µM [cytotoxic, single point] | inconclusive: 0.969 µM [cytotoxic, partial curve, poor fit]
Nc1ccc([As](=O)(O)O)cc1 | – | inconclusive: 1.19 µM [cytotoxic, single point]
CC(C)N(C(=O)SCC(Cl)=C(Cl)Cl)C(C)C | inconclusive: 68.6 µM [cytotoxic, partial curve, poor fit] | inactive
CC(C)C1CCC(Cc2ccc(Cl)cc2)C1(O)Cn1cncn1 (centres undefined) | inconclusive: 63.3 µM [cytotoxic, single point] | inconclusive: 60.5 µM [cytotoxic, single point]
ClC1C(Cl)C(Cl)C(Cl)C(Cl)C1Cl (centres undefined) | inconclusive: 44.2 µM [cytotoxic, partial curve, poor fit] and inconclusive: 68.6 µM [cytotoxic, partial curve, poor fit] and inconclusive: 68.6 µM [cytotoxic, single point] | inconclusive: 43.3 µM [cytotoxic, partial curve, poor fit] [middle of 6 runs]
C[C@]12Cc3nonc3C[C@@H]1CC[C@@H]1[C@@H]2CC[C@@]2(C)[C@H]1CC[C@]2(C)O | inconclusive: 23.7 µM [cytotoxic] | active: 29.8 µM
